{
  "source": "PubChem BioAssay AID485294",
  "about": "(National Center for Advancing Translational Sciences (NCATS), 2010)",
  "note": "Among all 370,000 compounds or so, about 150 (0.041%) were called active. The shares of active, inactive and inconclusive entries below differ from those in the screen. Calls follow the shape of the dose curve; as a rule, active = well fitted inhibition curve with a large enough effect; inconclusive = small, poorly fitted or top-dose-only effect; inactive = flat fitted curve, though single readings scatter. Potencies of inconclusive entries are left out as doubtful fits. Potency is read from the fitted curve at half-maximal effect; tags tell the direction and shape of the fitted curve.",
  "data": [
    {"biological_target": "Beta-lactamase (Escherichia coli (strain K12)) (UniProt P00811)", "sequence (P00811 whole entry, looked up)": "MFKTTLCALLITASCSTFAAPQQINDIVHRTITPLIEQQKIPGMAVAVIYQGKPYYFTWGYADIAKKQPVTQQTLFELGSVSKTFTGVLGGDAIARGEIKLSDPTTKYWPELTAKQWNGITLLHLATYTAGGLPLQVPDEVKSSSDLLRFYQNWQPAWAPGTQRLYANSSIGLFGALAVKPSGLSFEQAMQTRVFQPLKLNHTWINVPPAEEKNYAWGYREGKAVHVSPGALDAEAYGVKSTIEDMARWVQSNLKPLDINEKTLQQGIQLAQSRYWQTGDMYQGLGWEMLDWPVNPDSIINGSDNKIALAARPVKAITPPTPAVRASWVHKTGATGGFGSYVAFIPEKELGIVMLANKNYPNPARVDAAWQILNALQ", "test": "qHTS Inhibitors of AmpC Beta-Lactamase (assay with detergent); also: nearly all actives have a fitted effect of over 25% in size;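 as to activity change, negative = inhibition: 0% = no-compound wells and -100% = no-enzyme wells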", "settings": "AmpC hydrolysis of nitrocefin, absorbance 480 nm, 0.01% Triton; activity change, negative = inhibition: at 114 µM (top of the series)", "outline": "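AmpC (5.3 nM in the dispensed reagent) in 20 mM phosphate pH 7.0 with 0.01% (detergent screen) or 0.0001% Triton X-100 was preincubated with compounds for 15 min at room temperature. Nitrocefin was then added from an 800 uM solution, and hydrolysis was followed at 480 nm.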", "values": [
      {"smiles": "CCN(CC(=O)Nc1cc(Cl)ccc1C)C(=O)c1ccc(=O)n(Cc2ccccc2)n1", "Potency": "inconclusive [inhibitor, partial curve, poor fit]"},
      {"smiles": "Nn1c(-c2cccc(Br)c2)n[nH]c1=S", "Potency": "inconclusive [inhibitor, partial curve, poor fit]"},
      {"smiles": "CC(C)[C@H](NC(=O)c1ccc(F)cc1)C(=O)N(C)Cc1cccs1", "Potency": "inconclusive [inhibitor, full curve, poor fit]"},
      {"smiles": "Cc1ccc2c(c1)c1c(n2CC(O)Cn2ccnc2C)C(=O)CCC1", "note": "(configuration not stated)", "Potency": "inconclusive [inhibitor, full curve, poor fit]"},
      {"smiles": "CCOc1ccccc1CN1CCN(S(=O)(=O)CC)CC1", "Potency": "inconclusive [inhibitor, partial curve]"},
      {"smiles": "COc1ccc(CCNC(=O)Cn2cccc2C(=O)c2ccccc2C)cc1OC", "Potency": "inconclusive [inhibitor, full curve, poor fit]"},
      {"smiles": "Oc1ccc(COC2CCCC2)c2cccnc12", "Potency": "inconclusive [inhibitor, full curve, poor fit]"},
      {"smiles": "COc1ccc(C(C)=O)cc1CC(C(=O)c1ccccc1)N(C)C", "note": "(configuration not stated)", "Potency": "inconclusive [inhibitor, full curve, poor fit]"},
      {"smiles": "CCn1c(COc2ccc(Cl)cc2)nnc1SCC(=O)Nc1ccc2c(c1)OCCO2", "Potency": "inconclusive [inhibitor, single point]"},
      {"smiles": "CCN1CCN(c2ncnc3c2oc2nc(C(C)C)c4c(c23)CCC4)CC1", "activity change, negative = inhibition": "inactive: -18.3%"},
      {"smiles": "Cc1ccc(S(=O)(=O)N2CCCC(C(=O)NC3CCCC3)C2)cc1Cl", "note": "(configuration not stated)", "Potency": "inconclusive [inhibitor, full curve]"},
      {"smiles": "c1ccc(COc2ccc(Nc3ncnc4nc[nH]c34)cc2)cc1", "Potency": "inconclusive [inhibitor, full curve, poor fit]"},
      {"smiles": "COc1cc(/C=C2\\C(=O)N(c3ccccc3)N=C2C)ccc1Oc1ccc([N+](=O)[O-])cc1[N+](=O)[O-]", "activity change, negative = inhibition": "inactive: -22.2%"},
      {"smiles": "COc1ccc(CCN(C)C(=O)CCCN2C(=O)c3cccc4cccc(c34)C2=O)cc1OC", "Potency": "inconclusive [inhibitor, full curve]"},
      {"smiles": "O=C(Nc1cccc2ccccc12)N1CCN(Cc2ccccc2)CC1", "Potency": "inconclusive [inhibitor, full curve, poor fit]"},
      {"smiles": "Cc1n[nH]c(=O)nc1NC1CCCCC1", "Potency": "inconclusive [inhibitor, partial curve]"},
      {"smiles": "CCC(C)(C)n1nnnc1C(c1ccc(O)c(OC)c1)N1CCN(c2nc3ccccc3s2)CC1", "note": "(configuration not stated)", "Potency": "inconclusive [inhibitor, full curve, poor fit]"},
      {"smiles": "O=c1cc(-c2ccccc2)c2ccc(O)c(CN3CCCCC3)c2o1", "activity change, negative = inhibition": "inactive: -0.651%"},
      {"smiles": "c1ccc(Cn2c[n+](Cc3ccccc3)c3ccccc32)cc1", "Potency": "inconclusive [inhibitor, partial curve, poor fit]"},
      {"smiles": "COc1ccc(Cl)cc1NC(=O)Cc1coc2c(C)c(C)ccc12", "activity change, negative = inhibition": "inactive: 3.33%"},
      {"smiles": "O=C(c1cc(-c2ccccc2)on1)N1CCc2ccccc2C1", "activity change, negative = inhibition": "inactive: -6.92%"},
      {"smiles": "Cc1cccc(CSc2nc(N)c(C#N)c(-c3cccs3)c2C#N)c1", "Potency": "inconclusive [inhibitor, partial curve]"},
      {"smiles": "C=Cc1ccc(C2=CC(=O)C[C@H](c3ccc(OC)cc3)C2)cc1", "activity change, negative = inhibition": "inactive: -9.38%"},
      {"smiles": "Cn1c(=O)c2c(nc(CN3CCN(C(=O)c4ccco4)CC3)n2CCc2ccccc2)n(C)c1=O", "Potency": "inconclusive [inhibitor, full curve, poor fit]"},
      {"smiles": "COc1ccc(OC)c(CC(=O)N2CCc3cc(OC)c(OC)cc3C2)c1", "Potency": "inconclusive [inhibitor, single point]"},
      {"smiles": "CCCCN(C(=O)CCC(=O)Nc1cc(C)on1)C(C(=O)NC(C)(C)C)c1cccc(OC)c1OC", "note": "(configuration not stated)", "Potency": "inconclusive [inhibitor, partial curve, poor fit]"},
      {"smiles": "CCOc1ncccc1C(=O)Nc1nnc(C)s1", "activity change, negative = inhibition": "inactive: -0.866%"},
      {"smiles": "CCOC(=O)c1c(S(=O)(=O)NCC2CCN(Cc3cccc(F)c3)CC2)c(C)n(C)c1C", "Potency": "inconclusive [inhibitor, full curve, poor fit]"},
      {"smiles": "CCOc1cc(C(=S)N2CCCC2)ccc1OC", "activity change, negative = inhibition": "inactive: -17.7%"},
      {"smiles": "COc1ccc(-c2cccc(NC(=O)c3cccs3)c2)nn1", "Potency": "inconclusive [inhibitor, single point]"},
      {"smiles": "COc1ccc(Br)cc1S(=O)(=O)NCc1ccccn1", "Potency": "inconclusive [inhibitor, partial curve]"},
      {"smiles": "Cc1ccc(SC(C)c2nc(-c3ccncc3)no2)cc1", "note": "(configuration not stated)", "Potency": "inconclusive [inhibitor, partial curve]"},
      {"smiles": "C=CCn1c(=O)[nH]c2cc(C(=O)N3CCN(c4ccc(C(C)=O)cc4)CC3)ccc2c1=O", "Potency": "inconclusive [inhibitor, single point]"},
      {"smiles": "Cc1ccccc1NC(=O)c1ccc(NC(=O)c2ccco2)cc1", "activity change, negative = inhibition": "inactive: -3.45%"},
      {"smiles": "CCN(CC)C(=O)CSc1nnc(CNc2ccc(F)cc2)n1-c1ccccc1", "Potency": "inconclusive [inhibitor, single point]"},
      {"smiles": "CCc1cccc(NC(=O)C2CCCN2S(=O)(=O)c2ccc3c(c2)CC(C)N3C(C)=O)c1", "note": "(configuration not stated)", "Potency": "inconclusive [inhibitor, partial curve, poor fit]"},
      {"smiles": "COc1ccc(-n2c(C)cc(C(=O)NC3CCCCC3)c2C)cc1", "Potency": "inconclusive [inhibitor, partial curve]"},
      {"smiles": "COc1ccc(NC(=O)C2CCCN(C(=O)c3cnn(-c4ccccc4)c3-n3cccc3)C2)cc1", "note": "(configuration not stated)", "activity change, negative = inhibition": "inactive: -4.7%"},
      {"smiles": "Cc1cc(/C=C(\\C#N)C(=O)NC2CCCCCC2)c(C)n1C", "Potency": "inconclusive [inhibitor, full curve, poor fit]"},
      {"smiles": "C=CCN1CCN(c2ccncc2S(=O)(=O)N2CCOCC2)CC1", "activity change, negative = inhibition": "inactive: 1.22%"},
      {"smiles": "Cc1csc(SCCN2C(=O)c3ccccc3C2=O)n1", "Potency": "inconclusive [inhibitor, single point]"},
      {"smiles": "CCN1CCN(CCCNC(=O)Cn2c(-c3cccs3)cc3ccccc32)CC1", "Potency": "inconclusive [inhibitor, single point]"}
    ]}
  ]
}
